Laboratory results taken from PubChem BioAssay AID504332 (National Center for Advancing Translational Sciences (NCATS), 2011).
Hit rate of the full screen: of about 350,000 compounds, about 31,000 (8.9%) were called active. This list was built around the results that the source calls inconclusive (neither active nor inactive); the mix of calls is not that of the screen. Calls come from the whole dose curve; as a rule, active = well fitted inhibition curve with a large enough effect; inconclusive = small, poorly fitted or top-dose-only effect; inactive = no such curve, though single readings can be large or run the other way. Potencies of inconclusive entries are doubtful fits and often do not repeat.

These molecules were tested against Histone-lysine N-methyltransferase EHMT2 (Homo sapiens) (UniProt Q96KQ7) (assay: qHTS Assay for Inhibitors of Histone Lysine Methyltransferase G9a). Conditions: G9a H3K9 monomethylation, AlphaScreen, 2 h; activity, negative = inhibition: at 59 µM (top of the series) unless noted.
UniProt Q96KQ7, sequence (Q96KQ7 whole entry, looked up): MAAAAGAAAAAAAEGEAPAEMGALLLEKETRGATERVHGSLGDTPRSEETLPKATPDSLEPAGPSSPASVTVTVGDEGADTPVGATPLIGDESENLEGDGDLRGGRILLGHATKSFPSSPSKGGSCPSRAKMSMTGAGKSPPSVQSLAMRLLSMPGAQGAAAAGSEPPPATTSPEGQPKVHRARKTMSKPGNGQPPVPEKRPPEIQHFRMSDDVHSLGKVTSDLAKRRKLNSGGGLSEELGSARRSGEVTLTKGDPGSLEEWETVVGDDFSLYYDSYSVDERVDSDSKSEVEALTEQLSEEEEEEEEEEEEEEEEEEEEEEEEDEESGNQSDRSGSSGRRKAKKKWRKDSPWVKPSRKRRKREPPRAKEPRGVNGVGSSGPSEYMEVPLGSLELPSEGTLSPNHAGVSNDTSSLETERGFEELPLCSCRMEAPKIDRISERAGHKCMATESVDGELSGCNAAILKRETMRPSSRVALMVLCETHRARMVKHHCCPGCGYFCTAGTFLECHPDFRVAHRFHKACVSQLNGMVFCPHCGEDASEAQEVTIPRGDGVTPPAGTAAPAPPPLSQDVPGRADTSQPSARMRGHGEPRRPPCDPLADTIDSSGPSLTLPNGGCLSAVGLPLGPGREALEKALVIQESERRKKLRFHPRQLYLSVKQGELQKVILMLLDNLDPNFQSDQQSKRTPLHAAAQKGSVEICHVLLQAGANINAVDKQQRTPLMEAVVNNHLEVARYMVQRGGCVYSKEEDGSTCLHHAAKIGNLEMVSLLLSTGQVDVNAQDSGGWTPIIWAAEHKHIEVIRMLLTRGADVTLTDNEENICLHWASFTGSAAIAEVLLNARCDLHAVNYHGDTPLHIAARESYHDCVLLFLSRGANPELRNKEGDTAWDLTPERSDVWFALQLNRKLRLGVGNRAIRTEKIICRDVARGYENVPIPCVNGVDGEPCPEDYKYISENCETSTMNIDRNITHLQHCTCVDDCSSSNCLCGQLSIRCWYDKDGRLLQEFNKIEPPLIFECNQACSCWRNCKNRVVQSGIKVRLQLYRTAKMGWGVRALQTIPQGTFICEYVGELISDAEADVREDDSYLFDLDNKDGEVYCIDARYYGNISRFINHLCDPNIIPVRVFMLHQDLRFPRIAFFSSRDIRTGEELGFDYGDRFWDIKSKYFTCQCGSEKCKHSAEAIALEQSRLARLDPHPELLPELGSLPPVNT
Summary of the method: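 Compounds were preincubated with 20 nM G9a for 15 min, after which biotinylated H3K9 peptide (500 nM) and SAM (20 uM) started a 2 h room-temperature reaction. Monomethylated product was quantified by antibody-based AlphaScreen chemiluminescence.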
% is set by controls: 0 for no effect and ±100 for the full control effect; potency is the fitted concentration of half-maximal effect; tags give direction and shape of the fitted curve.
Note: nearly all actives have a fitted effect of over 75% in size.

Structure (SMILES) | Potency | activity, negative = inhibition
Cc1c(C)c2ccc(OS(C)(=O)=O)cc2oc1=O | inconclusive: 0.141 µM [inhibitor, full curve, poor fit] | –
C=CCNCC(=O)Nc1ccccc1SCC(=O)Nc1ccsc1C(=O)OC | inconclusive: 31.6 µM [inhibitor, partial curve, poor fit] | –
COC(=O)c1cc(=O)n(CCc2ccc(OC)cc2)c(=Nc2ccc(F)c(Cl)c2)s1 | inconclusive: 25.1 µM [inhibitor, full curve] | –
COCCn1c(=S)[nH]c2cc(C(=O)NCCc3ccc(OC)c(OC)c3)ccc2c1=O | inconclusive: 89.1 µM [inhibitor, single point] | –
C/C(=C\c1ccccc1)C(=O)Nc1ccc(S(=O)(=O)Nc2ncccn2)cc1 | – | inactive: -5.91% [at 102 µM]
CC(C)Nc1nnc(SCC(=O)NCc2ccc3c(c2)OCO3)s1 | inconclusive: 50.1 µM [inhibitor, partial curve, poor fit] | –
S=C(NCc1ccccc1)NCc1cccc(Cl)c1 | – | inactive: 41.7% [at 102 µM]
Cc1cc(C)c2[nH]c(=O)c(C(c3nnnn3C(C)(C)C)N(Cc3ccco3)CC3CCCO3)cc2c1 (stereo not drawn) | – | inactive: 1.37% [at 12.7 µM]
Cc1ccc(NC(=O)c2ccccc2)s1 | active: 25.1 µM | –
Cc1nc2sccn2c(=O)c1S(=O)(=O)Nc1cc(Cl)ccc1O | inconclusive: 7.94 µM [inhibitor, partial curve, poor fit] | –
CC(C)(C)NCCCOc1ccc(Cl)cc1C(C)(C)C | inconclusive: 22.4 µM [inhibitor, partial curve, poor fit] | –
Cc1cccc(NS(=O)(=O)c2ccc3[nH]c4c(c3c2)CCCCCC4)c1 | active: 15.8 µM | –
Cc1sc2ncnc(Nc3ccc(N4CCOCC4)cc3)c2c1-c1ccccc1 | active: 28.2 µM | –
Cc1cc(F)ccc1S(=O)(=O)Nc1ccccc1C(=O)Nc1ncn[nH]1 | – | inactive: 44.9%
CC(C)(C)C(=O)NC(=S)Nc1ccccc1C(N)=O | inconclusive: 35.5 µM [inhibitor, single point] | –
CCOC(=O)N1CCN(C(=O)C2CCCN(Cc3nc(-c4ccc(Cl)cc4)oc3C)C2)CC1 (stereo not drawn) | inconclusive: 89.1 µM [inhibitor, single point] | –
S=c1[nH]nc(-c2ccccc2)n1/N=C/c1cccc(Br)c1 | – | inactive: -42.5% [at 0.501 µM]
CCOc1ccc2nc(N(Cc3ccccc3)C(=O)CCNC(C)=O)sc2c1 | inconclusive: 89.1 µM [inhibitor, single point] | –
O=C(c1ccc(C(=O)N2CCN(c3ccccc3F)CC2)nc1)N1CCN(c2ccccc2F)CC1 | inconclusive: 79.4 µM [inhibitor, single point] | –
CN(C)c1ccc(CNc2ccc3c(c2)ncn3C)cc1 | inconclusive: 2.51 µM [inhibitor, partial curve, poor fit] | –
Cc1ccc(C(=O)NC(=S)Nc2ccc3[nH]c(=O)[nH]c3c2)cc1C | inconclusive: 100 µM [inhibitor, single point] | –
CCOC(=O)c1cccc(NC(=O)c2cc3ccccn3n2)c1 | – | inactive: -16.2%

Structure (SMILES) | Potency | activity, negative = inhibition
COc1ccc(CC(=O)OCC(=O)Nc2ccc(C(=O)Nc3ccc(OC)cc3)cc2)cc1 | inconclusive: 89.1 µM [inhibitor, partial curve, poor fit] | –
CCOc1ccccc1CNC(=O)C1CCN(c2nnc(-n3c(C)ccc3C)s2)CC1 | – | inactive: -14.4%
CCCCOc1ccc(C2=NC(c3ccncc3)=Nc3ccc(OCC)cc3N2)cc1 | inconclusive: 12.6 µM [inhibitor, partial curve, poor fit] | –
CCc1ccc(-c2cn(C3CCCCC3)c(=S)[nH]2)cc1 | inconclusive: 31.6 µM [inhibitor, single point] | –
COCC(COS(N)(=O)=O)Cc1ccccc1 (stereo not drawn) | – | inactive: 26.4% [at 102 µM]
COc1ccc(-c2nnc(N)s2)cc1 | inconclusive: 31.6 µM [inhibitor, single point] | –
C#CCOCCOCCOCCNc1nc(N2CCN(C(=O)[C@H](CCCCN)n3cc(C(N)CO)nn3)CC2)nc(N2CCN(C(=O)[C@H](CCC(=O)O)n3cc(C(N)Cc4ccc(O)cc4)nn3)CC2)n1 (stereo partly drawn) | inconclusive: 3.16 µM [inhibitor, single point] | –
CCCCC(=O)Nc1cc(N(C)C)nc2ccccc12 | – | inactive: -0.651%
COC(=O)c1ccc(CS(=O)(=O)c2ccc(F)cc2)o1 | active: 70.8 µM | –
O=C(O)c1ccc(NC2=C(n3nnc4ccccc43)C(=O)c3ccccc3C2=O)cc1 | inconclusive: 56.2 µM [inhibitor, partial curve, poor fit] | –
CCOC(=O)c1sc(NC(=O)CN2C(=O)NC3(CC(C)CC(C)(C)C3)C2=O)c(C(=O)OCC)c1C (stereo not drawn) | inconclusive: 70.8 µM [inhibitor, partial curve, poor fit] | –
CN(C)c1ccc(/C=N/N2CCN(c3ccccn3)CC2)cc1 | active: 12.6 µM | –
COc1ccc(/C=N\NC(=O)c2cc(O)c(O)c(O)c2)cc1COc1ccc(C(=O)OCC(C)C)cc1 | active: 22.4 µM | –
COc1ccc(NC(=O)CSc2nc3nc(C)c(Cc4ccccc4)c(C)n3n2)cc1OC | – | inactive: 0.526%
Cc1ccc(Cn2c(=O)c3ccccc3n3c(-c4cccc(O)c4)nnc23)cc1 | – | inactive: -24.3%
CCOC(=O)CSc1nnc(CSc2nc(N)c3c(C)c(C)sc3n2)n1-c1ccccc1 | active: 44.7 µM | –
COc1cc(C2c3sc(=O)[nH]c3SC3C(=O)N(c4ccc(Br)cc4)C(=O)C32)ccc1O (stereo not drawn) | inconclusive: 50.1 µM [inhibitor, partial curve] | –
Cc1ccc(N=Cc2ccc[nH]2)c(O)c1 | inconclusive: 25.1 µM [inhibitor, single point] | –
O=C(COC(=O)C1CC2CCCC(C1)C2=O)NNC(=O)c1ccc([N+](=O)[O-])cc1 (stereo not drawn) | – | inactive: 10.8% [at 0.501 µM]
FC(F)(F)c1cc(-c2ccco2)nc(NCc2cccs2)n1 | – | inconclusive: -52.9% [inhibitor]
Cc1noc(C)c1CSCC(=O)Nc1nc2ccc(S(C)(=O)=O)cc2s1 | inconclusive: 50.1 µM [inhibitor, partial curve, poor fit] | –
